Among all 52,000 compounds or so, about 1,700 (3.3%) were called active. No stated cut-off is given here; in the data, active means survival mostly below about 52% (no sharp cut-off); inactive means mostly above about 56%. The list shows a part of the results.
What follows are compounds tested on Wild type (assay: growth inhibition of S. aureus wild type versus tarO mutant, primary screen, teichoic acid synthesis inhibitors, RN4220, OD600 (AID 463173)). Conditions: S. aureus RN4220 wild type/DeltatarO growth, OD600, 18 h, active compounds read low, screened at 18.75 µg/mL (by protocol).
`CCc1ccc(CNC(=O)C2CCN(c3nnc(C)c4c(C)n(-c5ccc(C)cc5)nc34)CC2)cc1` was tested, and the survival was inactive: 74%.
With `Cc1cc(NC(=O)c2cc(-c3ccc(Br)cc3)on2)nn1Cc1ccc(Cl)cc1` the survival was inactive: 141%.
For `CCOC(=O)C1CCN(c2cc(C)nc3c(-c4ccccc4OC)c(C)nn23)CC1`, the survival was inactive: 82%.
In the case of `O=C(Cn1nc(-c2ccccc2)c2cnc3ccc(F)cc3c21)NC1CCCC1`, the survival is reported as inactive: 75%.
`O=C(Nc1nnc(S(=O)(=O)N2CCCCCC2)s1)c1ccccc1F` was tested, and the survival was inactive: 50%.
In the case of `COc1ccc(NCc2nnc(SCC(=O)c3ccc(OC)cc3)n2C)cc1`, the survival is reported as inactive: 83%.
For `Cc1nc(N2CCOCC2)c2c(C(=O)N(C)Cc3ccccc3)c(C)oc2n1`, the survival was inactive: 128%.
`CCOc1cccc2sc(N3CCN(C(=O)C(C)(C)C)CC3)nc12` was tested, and the survival was inactive: 98%.
For `CCCCNC(=O)Cn1c(-c2ccc(C)cc2)noc1=O`, the survival was inactive: 114%.
`Cc1cc(NC(=O)CSc2nc3c([nH]c4ccccc43)c(=O)n2-c2ccccc2F)no1` was tested, and the survival was inactive: 78%.
`CCCCNc1nc(Oc2ccc(=O)n(-c3ccccc3)n2)nc(N(CC)CC)n1` was tested, and the survival was inactive: 98%.
`Cc1ccc(-c2nnc(SCC(=O)N3CCCc4ccccc43)o2)cc1` was tested, and the survival was inactive: 65%.
With `Cc1ccc(C(=O)c2oc3ccccc3c2NC(=O)c2cc(=O)c3cc(C)ccc3o2)cc1` the survival was inactive: 109%.
For `COc1cccc(Cn2ccn(-c3ccc(F)cc3)c(=O)c2=O)c1`, the survival was inactive: 83%.
In the case of `Cc1ccc(NC(=O)c2nnn(Cc3cccc(C(F)(F)F)c3)c2N)c(C)c1`, the survival is reported as inactive: 97%.
With `Cc1cccc(Cn2c(SCc3ccc(C(=O)NCc4ccccc4)cc3)nc3cccnc32)c1` the survival was inactive: 64%.
`COc1ccc(CNC(=O)CCc2c(C)c3ccc(OC)c(C)c3oc2=O)cc1OC` was tested, and the survival was inactive: 79%.
For `COc1ccc(NC(=O)Cn2cc(C(=O)c3ccncc3)c(=O)c3cc(C)ccc32)cc1Cl`, the survival was inactive: 84%.
With `COC(=O)c1ccc(-n2nnc(-c3nc(-c4ccccc4Cl)no3)c2C)cc1` the survival was inactive: 59%.
`CCNC(=O)C1CCCN(c2ncnc3onc(C)c23)C1` (stereo unspecified) was tested, and the survival was inactive: 75%.
For `Cc1nc2ccn(Cc3ccco3)c(=O)c2cc1C(=O)Nc1ccc(F)cc1`, the survival was inactive: 70%.
`COc1ccc(NC(=O)Cn2nc(-c3ccccc3)c3cnc4ccc(C)cc4c32)cc1` was tested, and the survival was inactive: 45%.
In the case of `O=C(CSc1ccccn1)Nc1ccc(Cl)cc1`, the survival is reported as inactive: 105%.
For `COc1cc(OC)cc(C(=O)Nc2ccc(-c3nc4ccccc4s3)c(C)c2)c1`, the survival was inactive: 121%.
`CN1CCN(C(=O)Cn2c(-c3cccs3)cc3ccccc32)CC1` was tested, and the survival was inactive: 66%.
`Cc1ccc(N2C(=O)CS(=O)(=O)C23C(=O)N(Cc2ccccc2C)c2ccccc23)cc1Cl` (stereo unspecified) was tested, and the survival was inactive: 83%.
In the case of `Cc1ccc(OCC(=O)Nc2ccc3c(c2)sc(=O)n3C)cc1`, the survival is reported as inactive: 110%.
With `COc1ccc(-n2c(=O)[nH]c3cc(C(=O)NCCc4ccc(Cl)cc4)ccc3c2=O)cc1OC` the survival was inactive: 78%.
With `COc1ccc(NC(=O)C(NC(=O)C2CCC(C)CC2)C(C)C)cc1` (stereo unspecified) the survival was inactive: 66%.
In the case of `CCC(Sc1ncccc1C(=O)Oc1ccccc1Cl)C(=O)Nc1ccccc1OC` (stereo unspecified), the survival is reported as inactive: 71%.
For `Cc1ccc(-c2nc(C(=O)N3CCN(c4ccccc4)CC3)c3n2CCCCC3)cc1`, the survival was inactive: 82%.
In the case of `Cc1nn(C)c2c1c(C(F)(F)F)cc(=O)n2C(C)C(=O)NCCC(C)C` (stereo unspecified), the survival is reported as inactive: 77%.
For `Cc1ccc2c(=O)c(C(=O)c3ccccc3)cn(CC(=O)Nc3ccc(C)c(Cl)c3)c2n1`, the survival was inactive: 68%.
`CCCNC(=O)c1ccc2c(c1)nc(C)n2-c1cccc(C)c1` was tested, and the survival was inactive: 82%.
For `Cc1ccc(-c2ccc(CCC(=O)O)n2-c2cccc(C)c2C)cc1`, the survival was inactive: 64%.
In the case of `COc1ccc(NC(=O)c2c(C)oc3ccc(O)c(CN4CCCCCC4)c23)cc1`, the survival is reported as inactive: 121%.
`Cc1ccc(C)c(N2CCN(C(=O)CN3C(=O)COc4ccc(S(=O)(=O)N5CCC(C)CC5)cc43)CC2)c1` was tested, and the survival was inactive: 78%.
`CCOc1ccc(Br)cc1S(=O)(=O)Nc1cccc(-c2ccc(OC)nn2)c1` was tested, and the survival was inactive: 72%.
For `Cc1ccc(N2CCN(S(=O)(=O)c3ccc(-n4cnnn4)cc3)CC2)c(C)c1`, the survival was inactive: 97%.
For `CC(=O)O/N=C1/CC(C)(C)Cc2onc(C)c21`, the survival was inactive: 102%.
With `Cc1ccc(Cl)cc1N1CCN(C(=O)c2ccc3c(c2)N(Cc2ccccc2)CCS3)CC1` the survival was inactive: 76%.
For `COc1ccc(-n2c(=O)c3c4c(sc3n(Cc3ccc(C(C)(C)C)cc3)c2=O)CCC4)c(OC)c1`, the survival was inactive: 62%.
For `CCn1nnc2cc(C(=O)Nc3ccc(OC)cc3)ccc21`, the survival was inactive: 73%.
For `Cc1cn2c(=O)cc(COC(=O)c3ccc(NC(=O)C(C)Oc4ccccc4)cc3)nc2s1` (stereo unspecified), the survival was active: 0%.
In the case of `CCOCCCNC(=O)c1c(NC(=O)c2nc(SC)ncc2Cl)sc2c1CCCC2`, the survival is reported as inactive: 95%.
With `Cc1cc(C)nc(Nc2nc3ccccc3c(=O)[nH]2)n1` the survival was inactive: 101%.
In the case of `COc1ccc(CCNC(=O)c2cc(=O)[nH]c3ccc(S(=O)(=O)N4CCCCC4C)cc23)cc1OC` (stereo unspecified), the survival is reported as inactive: 127%.
`CS(=O)(=O)c1cccc(S(=O)(=O)c2cccc(S(C)(=O)=O)c2)c1` was tested, and the survival was inactive: 86%.
`COc1cccc(NC(=O)Cc2csc(COc3cccc(C)c3)n2)c1` was tested, and the survival was inactive: 90%.
With `CCOC(=O)c1c(N)n(-c2cc(C)cc(C)c2)c2nc3ccccc3nc12` the survival was inactive: 78%.
`COc1ccc(OC)c(NC(=O)CCNC(=O)Cn2cnc3ccccc3c2=O)c1` was tested, and the survival was inactive: 65%.
In the case of `Fc1ccc(Nc2c(-c3ccccn3)nc3ccc(Cl)cn23)cc1`, the survival is reported as inactive: 73%.
`O=C1CCCC/C1=C/Nc1ccc2c(c1)OCO2` was tested, and the survival was inactive: 105%.
`O=C(Nc1cc(Cl)cc(Cl)c1)c1cc(S(=O)(=O)N2CCC3(CC2)OCCO3)ccc1F` was tested, and the survival was inactive: 72%.
`O=C(NCCc1ccccc1)c1nn(-c2ccccc2Cl)nc1CO` was tested, and the survival was inactive: 86%.
`COc1ccc2oc(-c3cccc(F)c3)cc(=O)c2c1` was tested, and the survival was inactive: 109%.
In the case of `Cc1ccc(C)c(-n2nnc(C(=O)Nc3ccc(Br)cc3)c2C)c1`, the survival is reported as inactive: 45%.
`c1ccc(N2CCN(Cc3nnnn3Cc3ccc4c(c3)OCO4)CC2)cc1` was tested, and the survival was inactive: 107%.
`COCCn1c(C)cc(O)c(C(c2ccc(OC)cc2)N2CCN(c3ccccc3)CC2)c1=O` (stereo unspecified) was tested, and the survival was inactive: 49%.
`CC1CCCCN1C(=O)CSc1c2c(nc3cc(Cl)ccc13)CCCC2` (stereo unspecified) was tested, and the survival was active: -1%.
In the case of `COc1cccc(N2CCN(C(=O)C3CCN(S(=O)(=O)c4cn(C)cn4)CC3)CC2)c1`, the survival is reported as inactive: 148%.
In the case of `CCOCCn1c(=O)c2c(nc3n2CCN3c2ccc(C)c(C)c2)n(C)c1=O`, the survival is reported as inactive: 85%.
In the case of `Cc1cc(C)cc(NC(=O)COCc2cc(-c3ccc4c(c3)OCO4)on2)c1`, the survival is reported as inactive: 47%.
With `Cc1ccc(-n2ncc3c(Nc4cccc(C(F)(F)F)c4)ncnc32)cc1C` the survival was inactive: 70%.
In the case of `Cc1cc2c(cc1S(=O)(=O)NCc1ccccc1Cl)OCC(=O)N2`, the survival is reported as inactive: 75%.
With `COc1cccc(-c2nc(CS(=O)(=O)CC(=O)NCCc3ccc(Cl)cc3)c(C)o2)c1` the survival was inactive: 78%.
With `COc1ccc(OC)c(NC(=O)Cn2cnc3onc(-c4ccc(Cl)cc4)c3c2=O)c1` the survival was inactive: 132%.
In the case of `COc1ccc(NC(=O)CN(C)S(=O)(=O)c2ccc3c(c2)c(=O)n(C)c(=O)n3C)cc1`, the survival is reported as inactive: 124%.
For `NS(=O)(=O)c1ccc(NC(=O)c2csnn2)cc1`, the survival was inactive: 80%.
In the case of `CC(C)c1ccc(NC(=O)c2cnc3sc(N4CCOCC4)nn3c2=O)cc1`, the survival is reported as inactive: 120%.
For `COc1ccc(OCC2c3cc(OC)c(OC)cc3CCN2C(=O)c2c(F)cccc2F)cc1` (stereo unspecified), the survival was inactive: 121%.
In the case of `Cc1ccc(C(=O)NCC(c2ccco2)S(=O)(=O)c2ccc(Cl)cc2)cc1C` (stereo unspecified), the survival is reported as active: 14%.
With `CCCCNC(=O)c1cn(C)c2ccc(S(=O)(=O)N3CCCC3)cc2c1=O` the survival was inactive: 126%.
`COc1ccc(-c2nc3ccc(Cl)cn3c2Nc2ccc(C)cc2)cc1` was tested, and the survival was inactive: 65%.
With `CCc1ccc(-n2nc(CO)c(C(=O)NCc3cccs3)n2)cc1` the survival was inactive: 89%.
In the case of `O=C1CCCc2c1[nH]c1ccccc21`, the survival is reported as inactive: 118%.
In the case of `Cc1ncsc1C(=O)O`, the survival is reported as inactive: 102%.
For `COc1cc(OC)c(NC(=O)Cn2cnc3sc(C)c(S(=O)(=O)N4CCC(C)CC4)c3c2=O)cc1Cl`, the survival was inactive: 75%.
With `COc1ccc(N2CC(NC(=O)C(=O)c3c(C)[nH]c4ccccc34)CC2=O)cc1` (stereo unspecified) the survival was inactive: 113%.
In the case of `O=C(CSc1nc(=O)n(Cc2ccco2)c2c1CCC2)NCc1ccc(Cl)cc1`, the survival is reported as inactive: 97%.
With `C=CCSc1nc(O)c(CC(C)C)c(=O)[nH]1` the survival was inactive: 102%.
`Cc1ccc(NC(=O)CCn2c(=O)c3cccn3c3ccccc32)cc1Cl` was tested, and the survival was inactive: 74%.
In the case of `Cc1ccc(C(=O)N2CCN(Cc3cc(=O)n4nc(-c5ccccc5)sc4n3)CC2)cc1`, the survival is reported as inactive: 66%.
With `Cc1cc(NC(=O)Nc2nnc(N3CCCCC3)s2)ccc1Br` the survival was inactive: 86%.
`Cc1cc(C)n(-c2nc3ccccc3nc2Nc2cc(Cl)ccc2C)n1` was tested, and the survival was inactive: 131%.
In the case of `Cc1cc(C)c2nc(N(Cc3cccnc3)C(=O)Cc3ccccc3)sc2c1`, the survival is reported as inactive: 55%.
With `COc1ccccc1CNC(=O)CSc1nc(=O)[nH]c2c1CCCC2` the survival was inactive: 75%.
For `CCN(Cc1ccccc1)C(=O)Cn1c(=O)n(-c2ccc(Cl)c(Cl)c2)c(=O)c2c(C)c(C(=O)N(C)C)sc21`, the survival was inactive: 75%.
In the case of `COc1ccc(CCNC(=O)c2cc(=O)c3ccc(C)cc3o2)cc1OC`, the survival is reported as inactive: 97%.
For `CCCCCn1c(=O)[nH]c2cc(C(=O)NC(C)CC)ccc2c1=O` (stereo unspecified), the survival was inactive: 78%.
In the case of `COc1ccc(C(=O)Nc2ccc3oc(-c4cccnc4)nc3c2)cc1OC`, the survival is reported as inactive: 99%.
